Reference: publication PMC12136788
The list shows a part of the results.

T1: UNK ZnF1-3 (human, UniProt Q9C0B0 31-174)
T1 sequence: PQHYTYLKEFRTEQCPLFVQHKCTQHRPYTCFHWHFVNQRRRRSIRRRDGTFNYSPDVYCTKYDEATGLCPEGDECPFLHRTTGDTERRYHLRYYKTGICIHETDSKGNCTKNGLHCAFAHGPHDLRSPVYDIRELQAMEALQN

B1: chrX:98417731:98417732:-_ENSMUSG00000046032_ENSMUST00000120389|mus_mus|motif|central (ssRNA)
RNA: GGGAGUUCUACAGUCCGACGAUCGUUACUGGGCGGCCCGUAAGCGUCGGUCAGGUCUUGGGGCUUCGAGUUAAGGCGCCGGGUGUCAGCCACUGCGGUGUCCGACAUCUUUCCGAAGAAGAGCCCGGUACCGGCGAAGGGGGUCAACAGAGGAUUGAGCAUCA
B2: chr14:78183846:78183847:+_ENSG00000119705_ENST00000557342|hu_hu|hu_hu_hu_mus_False|28_38 (ssRNA)
RNA: GGGAGUUCUACAGUCCGACGAUCUCUCAGAAAUCUUUCUUCAUCAGAUGUUUGAGCUCCGUGCAAAGCCUUUGCUCUUUGAGCUUGAACGUGGAUCUUUACUCCAUCUAUAAUAUGCAGAAAAGGUAAUUUUUUUUUUAAAGACAACAGAGGAUUGAGCAUCA
B3: chr5:145557987:145557988:+_ENSMUSG00000045482_ENSMUST00000132925|mus_mus|FALSE|FALSE (ssRNA)
RNA: GGGAGUUCUACAGUCCGACGAUCCGGUCUCAAUGGCCUUUUCCAUCGGAAGCUGGAGAGAAGCUUUGCAAUCAGAGAACUCCACGGUAAUGCUGGGGCCUUGAACUUCAGUCACAACAUAGUGCAGCUUCUGGGACUCCUUCACAACAGAGGAUUGAGCAUCA
B4: chr1:29344887:29344888:+_ENSG00000159023_ENST00000356093|perfect_dup|motif|central (ssRNA)
RNA: GGGAGUUCUACAGUCCGACGAUCUUCCAUGACCUUCUCUUCAAGUUCCUUGGUCUGAUUCGGGGCCAGUUUAAAAUCACGGACAUAAUCCACGCCAUGGAGUUCUGGGUCGUAGUCUCCCAGUUCAGACUGGAUGGUGUAAGACAACAGAGGAUUGAGCAUCA
B5: chr10:21962475:21962476:+_ENSG00000078403_ENST00000307729|hu_hu|motif|central (ssRNA)
RNA: GGGAGUUCUACAGUCCGACGAUCUUCAAAGCUUUUAGGCUGUGAAGUAACAGCUGAGGUUGAAGGGAGGCCAAUUAAGGUACGGAAACUAUUUACCCCCCCUUCCUGGCUUCCAGACUCUCCUUUAUGUACAUCUUUGGUUGCCAACAGAGGAUUGAGCAUCA
B6: chr8:42711381:42711382:-_ENSG00000120925_ENST00000527424|hu_hu|FALSE|FALSE (ssRNA)
RNA: GGGAGUUCUACAGUCCGACGAUCCACUUCUCGAUACAUAAUAGAGAUGUAGAUAAGCAAUAAAAAGAUGACAAAGAAAUCAUCUAGAAAGCCUAGAAUUCCAAACAAGGCUUCAGGUACAAAAUCUAGAGGUGAUAUAAGAUACAACAGAGGAUUGAGCAUCA
B7: chr8:11667275:11667276:+_ENSG00000079459_ENST00000525900|hu_mus|FALSE|FALSE (ssRNA)
RNA: GGGAGUUCUACAGUCCGACGAUCGUCCUUCUCCUUGCUCUCAGUGAACCGCCACUCUGGGUCAUAGAGGAAAGUGUGGAAGUUACACAGCAGUGGGAUCUUCUUCUCCACACUGAUGCUCAUGUCAUCCUCCACUGUAUCCAGCAACAGAGGAUUGAGCAUCA
B8: chr4:4237396:4237397:-_ENSG00000132406_ENST00000382753|hu_hu|motif|central (ssRNA)
RNA: GGGAGUUCUACAGUCCGACGAUCUAAAACUUCACAUUAGGAAAUGCUAAAAACCCAGUAAUGUACAUAAUGAUAAAAUCGGAAGUGAUGAGAAAACAUAAAAUAUUUUCAUUUGGUCCUGUCACCUAACAAAACUAUCAUAAACAACAGAGGAUUGAGCAUCA
B9: chr18:9315019:9315020:-_ENSMUSG00000024286_ENSMUST00000053917|mus_hu|FALSE|FALSE (ssRNA)
RNA: GGGAGUUCUACAGUCCGACGAUCUAAGAUGCCAAAGUUUUCCAAGCUCACAUGGGAAGAAGGUGAAACACAGACCUGCUGCUGCCACUGGCCUCCCAGAGACUUGAAAAGGGAAACAACUCAGAAACCUGUCACUGUGACCUACAACAGAGGAUUGAGCAUCA
B10: chr10:24632488:24632489:+_ENSMUSG00000019984_ENSMUST00000092646|mus_mus|motif|central (ssRNA)
RNA: GGGAGUUCUACAGUCCGACGAUCAGGUGCUGGAGACCCGCUGUUGAGGGCCUGGGGUGGCACUGCCGGCUCCAUCUUGCGGAUGUGCGUGAUGAAUCGAAGACGAAGCUUUAAAGCCGGCUUUAAAUUACAGAUAAUCUUCUCCAACAGAGGAUUGAGCAUCA
B11: chr12:42180722:42180723:-_ENSMUSG00000036295_ENSMUST00000043884|mus_hu|mus_mus_mus_hu_True|58_58 (ssRNA)
RNA: GGGAGUUCUACAGUCCGACGAUCCUGUAGGAGAAGAAUCUGUGUGUUAGCUGGCAAUCUGGCUGGGAAAGUUAAAAGCCCUAAAUCAUUACAAUCCACUGUAGAUGCUUCCAUAUAAAUGGAUCUGGGUGUAAACCAAGGCCUCAACAGAGGAUUGAGCAUCA
B12: chr17:46962767:46962768:-_ENSMUSG00000036568_ENSMUST00000040624|mus_mus|FALSE|FALSE (ssRNA)
RNA: GGGAGUUCUACAGUCCGACGAUCAACAGGCACGUGAGUCACCCCGAUAGGCUGCAGUGUCUGACCUGAGUAAUUAGAAACAUUAGAAGCCUGAGUAAAGGAUGCUGAUGAAGAAGGAUGAAGCUGGGCUUGUGCAAACUGUUGCAACAGAGGAUUGAGCAUCA
B13: chr11:106642694:106642695:-_ENSMUSG00000020719_ENSMUST00000021062|mus_mus|motif|central (ssRNA)
RNA: GGGAGUUCUACAGUCCGACGAUCAAUCUGGAAUUAUAAAAUCCAUUGUCUCUAACUUCUUCCCAUACAAACAGAUCAUCCGGAGGGCCUUCUGAGUUCCUCUCCUAAAUCCAGGAAUGGGAAGUAGUCAACUUUCCUUGUGUACAACAGAGGAUUGAGCAUCA
B14: chr2:90738878:90738879:-_ENSMUSG00000005510_ENSMUST00000005647|mus_hu|FALSE|FALSE (ssRNA)
RNA: GGGAGUUCUACAGUCCGACGAUCUCCAAACAUGUCCCAGAUCUCCCUUUCAUACCAGUUGGCUGCCUUGAACACAGAGACAGCAGACUCAAUGGGCGUCAGCUCAUCUGUGUAGGUCUUCACACGGAUCCGUGAGUUGAAGCGCAACAGAGGAUUGAGCAUCA

These binders were tested against T1, UNK ZnF1-3 (assay: nsRBNS (natural sequence RNA bind-n-seq); RBNS binding buffer (assumed for nsRBNS): 25 mM Tris pH 7.5, 150 mM KCl, 3 mM MgCl2, 0.01% Triton X-100, 500 ug/ml BSA, 20 U/ml SUPERase-In, 4 C; UNK is unkempt and MSI1 is Musashi-1; names of the RNAs are library labels; protein concentration not given here; high values mean tight binding).

Binder | binding signal [enrichment R]
B1 | 1.1
B2 | 0.812
B3 | 1.19
B4 | 0.636
B5 | 0.578
B6 | 1.56
B7 | 0.832
B8 | 1.05
B9 | 0.856
B10 | 0.91
B11 | 1.17
B12 | 1.41
B13 | 0.446
B14 | 0.632
